Laboratory results taken from PubChem BioAssay AID504332 (National Center for Advancing Translational Sciences (NCATS), 2011).
Hit rate of the full screen: of about 350,000 compounds, about 31,000 (8.9%) were called active. The inconclusive results got no clear call from the source; some entries with a clear call stand among them for comparison. The call rests on the fitted dose curve; in most records, active means well fitted inhibition curve with a large enough effect; inconclusive means small, poorly fitted or top-dose-only effect; inactive means no such curve, though single readings can be large or run the other way. A potency beside an inconclusive call is a rough fit, not a confirmed value.

target: Histone-lysine N-methyltransferase EHMT2 (Homo sapiens) (UniProt Q96KQ7); experiment: qHTS Assay for Inhibitors of Histone Lysine Methyltransferase G9a; settings: G9a H3K9 monomethylation, AlphaScreen, 2 h; activity, negative = inhibition: at 59 µM (top of the series) unless noted; further: nearly all actives have a fitted effect of over 75% in size
Method in brief: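 AlphaScreen detection with an anti-monomethyl H3K9 antibody quantified product after a 2 h room-temperature reaction containing 500 nM biotinylated H3K9 peptide, 20 µM SAM and 20 nM enzyme, which had been preincubated 15 min with compound.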
On the % scale 0 is the no-effect control and ±100 the full control effect; potency means the concentration at half of the fitted maximal effect; tags describe the fitted curve by direction and shape.

Sequence of UniProt Q96KQ7 (Q96KQ7 whole entry, looked up): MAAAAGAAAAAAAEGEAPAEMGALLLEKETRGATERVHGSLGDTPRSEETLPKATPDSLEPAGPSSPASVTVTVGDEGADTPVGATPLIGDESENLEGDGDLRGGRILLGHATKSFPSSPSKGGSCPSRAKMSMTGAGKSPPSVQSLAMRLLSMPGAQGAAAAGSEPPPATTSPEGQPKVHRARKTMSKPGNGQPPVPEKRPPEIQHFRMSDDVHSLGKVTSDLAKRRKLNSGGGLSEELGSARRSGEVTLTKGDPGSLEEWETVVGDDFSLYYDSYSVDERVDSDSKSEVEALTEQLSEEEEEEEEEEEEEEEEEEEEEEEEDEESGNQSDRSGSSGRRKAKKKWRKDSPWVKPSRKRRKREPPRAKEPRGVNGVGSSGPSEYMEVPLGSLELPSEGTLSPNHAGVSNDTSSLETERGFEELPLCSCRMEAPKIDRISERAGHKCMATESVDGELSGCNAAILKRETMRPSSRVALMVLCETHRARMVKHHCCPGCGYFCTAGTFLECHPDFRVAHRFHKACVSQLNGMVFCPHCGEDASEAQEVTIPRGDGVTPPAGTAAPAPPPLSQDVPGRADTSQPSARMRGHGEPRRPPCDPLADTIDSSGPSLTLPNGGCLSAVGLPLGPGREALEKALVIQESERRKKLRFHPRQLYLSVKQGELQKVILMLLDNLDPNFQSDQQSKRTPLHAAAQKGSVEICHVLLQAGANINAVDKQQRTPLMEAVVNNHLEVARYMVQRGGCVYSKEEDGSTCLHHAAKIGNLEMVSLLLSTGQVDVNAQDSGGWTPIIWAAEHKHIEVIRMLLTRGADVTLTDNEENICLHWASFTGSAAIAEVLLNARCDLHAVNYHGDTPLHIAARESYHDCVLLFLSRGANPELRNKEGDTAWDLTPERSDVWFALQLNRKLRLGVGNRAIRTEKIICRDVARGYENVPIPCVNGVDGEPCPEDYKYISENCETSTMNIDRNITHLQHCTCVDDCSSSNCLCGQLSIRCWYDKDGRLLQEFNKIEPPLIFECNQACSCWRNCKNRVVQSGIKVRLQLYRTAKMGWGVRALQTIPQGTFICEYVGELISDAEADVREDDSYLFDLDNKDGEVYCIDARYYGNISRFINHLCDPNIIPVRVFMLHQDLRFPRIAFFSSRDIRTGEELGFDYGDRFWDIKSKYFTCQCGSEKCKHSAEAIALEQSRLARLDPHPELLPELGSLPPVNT

Compound	Potency	activity, negative = inhibition
CCOc1ccc(N=C(C)c2ccccc2O)cc1	inconclusive: 89.1 µM [inhibitor, single point]	–
O=C(NCCCn1ccnc1)c1ccc(COc2ccccc2)o1	inconclusive: 89.1 µM [inhibitor, partial curve, poor fit]	–
O=C(CC(c1ccco1)C1CCCCC1=O)c1ccccc1 (stereo not drawn)	inconclusive: 89.1 µM [inhibitor, single point]	–
O=C(NCC1CCCO1)c1nc2c(nnn2Cc2ccc(F)cc2)c(=O)[nH]1 (stereo not drawn)	active: 50.1 µM	–
CN(C)/C=N/C(=S)Nc1cc(Cl)cc(Cl)c1	inconclusive: 0.891 µM [inhibitor, partial curve, poor fit]	–
COc1ccc(-n2c(=O)c3ccccc3n(CC(=O)NC3CCCC3)c2=O)c(OC)c1	inconclusive: 0.158 µM [inhibitor, full curve, poor fit]	–
Cc1cccn2c(=O)c(/C=C(\C#N)S(=O)(=O)c3ccccc3)c(N3CCN(C)CC3)nc12	inconclusive: 89.1 µM [inhibitor, single point]	–
c1ccc(-c2cn(C[C@H]3CC[C@@H]([C@@H]4CC[C@H](Cn5cc(-c6ccccn6)nn5)O4)O3)nn2)nc1	inconclusive: 50.1 µM [inhibitor, partial curve, poor fit]	–
O=C(Nc1cccnc1)C1(F)C(F)(F)C(F)(F)C(F)(F)C(F)(F)C1(F)F	active: 50.1 µM	–
CN(C)CCCN(Cc1ccccc1)C(=S)Nc1cccc(C(F)(F)F)c1	active: 70.8 µM	–
COc1ccc(/C=C2/C(=O)ON=C2C)cc1Br	inconclusive: 39.8 µM [inhibitor, partial curve, poor fit]	–
CC1(C)CC(=O)C2=C(C1)NC1=C(C(=O)c3ccccc31)C2c1cc([N+](=O)[O-])ccc1O (stereo not drawn)	inconclusive: 11.2 µM [inhibitor, full curve]	–
CN(CCCCCC(=O)/C=N/O)Cc1ccccc1	–	inactive: 21.9%
Cc1nn(C)c(C(=O)Sc2cccc(Cl)c2)c1[N+](=O)[O-]	–	inconclusive: -67.2% [inhibitor]
COCC(C)n1c(C)cc(C(=O)COC(=O)c2n[nH]c3ccccc23)c1C (stereo not drawn)	–	inconclusive: -58.7% [inhibitor]
COc1ccc(NC2=C3CC(C)CC=C3N(c3ccc(OC)cc3)C2=O)cc1 (stereo not drawn)	inconclusive: 44.7 µM [inhibitor, partial curve]	–
N#CCC(=N)N1CCN(c2ccc(Cl)cc2)CC1	inconclusive: 28.2 µM [inhibitor, single point]	–
Cc1cccc(-n2nc3c(c2NC(=O)c2ccco2)CS(=O)C3)c1C (stereo not drawn)	inconclusive: 20 µM [inhibitor, full curve]	–
O=C(CCc1ccccc1Cl)Nc1ccc(S(=O)(=O)Nc2nccs2)cc1	inconclusive: 89.1 µM [inhibitor, single point]	–
COc1ccc2[nH]cc(CCn3ccc(=O)c(C)c3C)c2c1	inconclusive: 89.1 µM [inhibitor, partial curve, poor fit]	–
CCOc1ccc(Br)cc1S(=O)(=O)Nc1cccc(S(=O)(=O)N(CC)CC)c1	inconclusive: 1.26 µM [inhibitor, partial curve, poor fit]	–
O=c1[nH]c(C2CCN(S(=O)(=O)c3ccccc3)CC2)nc2c1nnn2Cc1ccccc1	inconclusive: 44.7 µM [inhibitor, partial curve]	–

Compound	Potency	activity, negative = inhibition
Cc1sc2nc(CN(Cc3cccs3)C(=O)C3CC3)[nH]c(=O)c2c1C	inconclusive: 89.1 µM [inhibitor, single point]	–
CC1CCC2(CC1)Nc1ccccc1C(=O)N2c1ccccc1 (stereo not drawn)	active: 70.8 µM	–
CCCc1ccc(Oc2cn[nH]c2-c2ccc(O)c(C)c2O)cc1	–	inactive: -38.6% [at 102 µM]
O=C(NC(=S)Nn1cnnc1)c1ccc(F)cc1Cl	active: 14.1 µM	–
Cc1ccc(N2C(=O)CS(=O)(=O)C23C(=O)N(Cc2ccccc2C)c2ccccc23)cc1Cl (stereo not drawn)	inconclusive: 1.78 µM [inhibitor, partial curve, poor fit]	–
COc1cc(OC)c(C(=O)OCC(=O)N2CC(=O)Nc3ccccc32)cc1OC	–	inactive: 1.9% [at 102 µM]
Cc1nn(C)c2c1c(C(F)(F)F)cc(=O)n2C(C)C(=O)NCCC(C)C (stereo not drawn)	–	inactive: -7.47%
CCOc1ccccc1Nc1nc(-c2sc(C)nc2C)cs1	inconclusive: 17.8 µM [inhibitor, partial curve, poor fit]	–
CCOC(=O)c1cc(NC(=O)NCc2ccco2)c(C)nc1C	inconclusive: 39.8 µM [inhibitor, single point]	–
Cc1cnc(C(=O)OCC(=O)Nc2cc(Cl)cc(Cl)c2)cn1	inconclusive: 79.4 µM [inhibitor, partial curve, poor fit]	–
O=C(O)c1cscn1	inconclusive: 1.58 µM [inhibitor, partial curve, poor fit]	–
O=C(Nc1cccnc1)c1ccc([N+](=O)[O-])s1	inconclusive: 0.316 µM [inhibitor, partial curve, poor fit]	–
COc1ccc(NC(=O)C(NC(=O)C2CCC(C)CC2)C(C)C)cc1 (stereo not drawn)	–	inactive: -11.6%
O=C(Cn1c(=O)oc2cc(S(=O)(=O)N3CCc4ccccc43)ccc21)N1CCCCC1	inconclusive: 89.1 µM [inhibitor, single point]	–
CCN(CC)CCN1C(=O)C(O)=C(C(=O)c2cc3ccccc3o2)C1c1cccnc1 (stereo not drawn)	active: 89.1 µM	–
Oc1c(C=C2N=c3ccccc3=N2)sc(=S)n1C1CCCCC1	inactive	–
Cc1ccc(C(=O)NCC(=O)OCC(=O)NC2CCCC(C)C2C)s1 (stereo not drawn)	inconclusive: 50.1 µM [inhibitor, partial curve]	–
CCN(C(=O)CSc1nnc(-c2cc3occc3n2C)n1-c1ccccc1C)c1cccc(C)c1	inconclusive: 7.08 µM [inhibitor, partial curve, poor fit]	–
CCc1ccc(NC(=S)NCc2cccnc2)cc1	inconclusive: 25.1 µM [inhibitor, single point]	–
S=C(c1ccc2c(c1)OCO2)N1CCCCCC1	active: 50.1 µM	–
CC(C)CCn1c(CN2CCN(c3cccc(Cl)c3)CC2)nc2c1c(=O)n(C)c(=O)n2C	–	inconclusive: -73.2% [inhibitor]
